This passage reports fractional viability results from the supplement of paper PMC5919970.

Structures can show the parent of a compound that is named as a salt. Over roughly 2,000 compounds, “fractional viability relative to vehicle” has its median near 0.91; the lowest 2% begin near 0.045. Some of the results follow.

This experiment deals with TYKNU. Put plainly: fractional viability relative to vehicle; TYKNU is a high-grade serous ovarian cancer line; higher = less growth inhibition. The following applies: 72 h. The essentials: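 Drug treatment lasted 72 h, with cells grown at 37 °C in 5% CO2 in RPMI 1640 supplemented with 10% FBS. Beforehand, TYKNU control cells or their lentiCRISPRv2 knockout derivatives had been seeded at 500 cells per well into drug-stamped 384-well plates carrying a ~2100-compound library at 2 or 10 μM, in duplicate. Viability came from Cell Titer Glo luminescence, with averaged duplicate treatment wells normalised to duplicate control wells in the same plate position.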

The mark [1] stands for this setting: 2uM, genotype: DNM1L knockout (sgDNM1L #1).
Where [2] appears, read: 2uM, genotype: sgCTRLA1 (non-targeting control).
[3] abbreviates: 10uM, genotype: DNM1L knockout (sgDNM1L #1).
The mark [4] stands for this setting: 10uM, genotype: sgCTRLA1 (non-targeting control).

Consider `O=C1OC(CN2CCOCC2)CN1/N=C/c1ccc([N+](=O)[O-])o1` (centres undefined) [Furaltadone HCl], for which the fractional viability worked out at 1.13 under setting [1], 1.31 under setting [2], 0.995 under setting [3] and 1.27 under setting [4].

As to `CC(C)(C(=O)NCC(F)(F)C(F)(F)F)C(=O)N[C@@H]1C(=O)Nc2ccccc2-c2ccccc21`, the fractional viability is 0.968 under setting [1], 1.17 under setting [2], 0.899 under setting [3] and 1.08 under setting [4].

`Cc1cc(C)c(CNC(=O)c2cc(-c3ccc(N4CCN(C)CC4)nc3)cc3c2c(C)cn3C(C)C)c(=O)[nH]1`: the fractional viability runs as follows: under setting [1], 0.782; under setting [2], 1.03; under setting [3], 0.669; under setting [4], 0.609.

Turning to `CN(C)CCNC(=O)c1cccn2c(=O)c3cc4ccccc4cc3nc12`, the fractional viability turned out to be 0.389 under setting [1], 0.417 under setting [2], 0.107 under setting [3] and 0.0609 under setting [4].

In the case of `CCOc1cc(N)c(Cl)cc1C(=O)NCC1CN(Cc2ccc(F)cc2)CCO1` (centres undefined) [Mosapride Citrate], the fractional viability came to 1.01 under setting [1], 0.954 under setting [2], 0.911 under setting [3] and 0.912 under setting [4].

`COC(=O)[C@H](CCSC)NC(=O)c1ccc(NC[C@@H](N)CS)cc1-c1ccccc1`: the fractional viability came out at 0.719 under setting [1], 0.86 under setting [2], 0.62 under setting [3] and 0.852 under setting [4].

On to `Cc1cccc(Nc2ccccc2C(=O)O)c1C` [Mefenamic Acid], for which the fractional viability reads like this: under setting [1], 0.904; under setting [2], 1.22; under setting [3], 0.702; under setting [4], 1.12.

Take `CCC(C)n1ncn(-c2ccc(N3CCN(c4ccc(OCC5COC(Cn6cncn6)(c6ccc(Cl)cc6Cl)O5)cc4)CC3)cc2)c1=O` (centres undefined) [Itraconazole]: the fractional viability worked out at 1.02 under setting [1], 1.07 under setting [2], 0.761 under setting [3] and 0.994 under setting [4].

With `C[C@H]1[C@H](OC(=O)CCC(=O)O)O[C@@H]2O[C@@]3(C)CC[C@H]4[C@H](C)CC[C@@H]1[C@@]24OO3` [Artesunate], the fractional viability runs as follows: under setting [1], 0.491; under setting [2], 0.484; under setting [3], 0.294; under setting [4], 0.284.

With `C=CCn1c(=O)c2cnc(Nc3ccc(N4CCN(C)CC4)cc3)nc2n1-c1cccc(C(C)(C)O)n1`, the fractional viability reads like this: under setting [1], 0.128; under setting [2], 0.121; under setting [3], 0.202; under setting [4], 0.0791.

Take `Clc1ccc(C(Cn2ccnc2)OCc2csc3c(Cl)cccc23)c(Cl)c1` (centres undefined) [Sertaconazole nitrate]: the fractional viability by setting is: under setting [1], 0.866; under setting [2], 1.16; under setting [3], 0.544; under setting [4], 0.858.

For the compound `CC1(C)S[C@@H]2[C@H](NC(=O)Cc3ccccc3)C(=O)N2[C@H]1C(=O)O` [Penicillin G Sodium], the fractional viability under setting [1] was found to be 1.05, the fractional viability under setting [2] came to 1.18, the fractional viability under setting [3] came out at 0.704 and the fractional viability under setting [4] is 0.99.

In the case of `CCCCc1nc(Cl)c(CO)n1Cc1ccc(-c2ccccc2-c2nnn[nH]2)cc1` [Losartan Potassium (DuP 753)], the fractional viability was 0.988 under setting [1], 1.07 under setting [2], 0.956 under setting [3] and 1.09 under setting [4].

The compound `O=C(Nc1cccc2cccnc12)c1ccc(N2C(=O)[C@@H]3[C@H](C2=O)[C@@H]2C=C[C@H]3C2)cc1` [IWR-1-endo] returned a fractional viability under setting [1] of 0.84, a fractional viability under setting [2] of 1.18, a fractional viability under setting [3] of 0.723 and a fractional viability under setting [4] of 0.945.

For `O=C1CCC(N2C(=O)c3ccccc3C2=O)C(=O)N1` (centres undefined) [Thalidomide], the fractional viability was determined as 1.08 under setting [1], 1.04 under setting [2], 0.934 under setting [3] and 1.21 under setting [4].

Turning to `C[C@H](CCC(=O)NCCS(=O)(=O)O)[C@H]1CC[C@H]2[C@@H]3[C@@H](O)C[C@@H]4C[C@H](O)CC[C@]4(C)[C@H]3CC[C@]12C` [Sodium Tauroursodeoxycholate (TUDC)], the fractional viability reads like this: under setting [1], 0.814; under setting [2], 0.961; under setting [3], 0.874; under setting [4], 0.803.

In turn, `c1cn2cc(-c3ccc4cn[nH]c4c3)nc(Nc3ccc(N4CCOCC4)cc3)c2n1` registered a fractional viability under setting [1] of 0.866, a fractional viability under setting [2] of 0.977, a fractional viability under setting [3] of 0.0803 and a fractional viability under setting [4] of 0.34.

Consider `COc1ccccc1N1CCN(CCCNc2cc(=O)n(C)c(=O)n2C)CC1` [Urapidil HCl], for which the fractional viability runs as follows: under setting [1], 0.945; under setting [2], 1.1; under setting [3], 0.822; under setting [4], 1.02.

`O=C(Nc1cccc(Nc2ncc(Br)c(NCCc3cnc[nH]3)n2)c1)N1CCCC1` displayed a fractional viability under setting [1] of 0.738, a fractional viability under setting [2] of 0.873, a fractional viability under setting [3] of 0.413 and a fractional viability under setting [4] of 0.448.

Consider `CN(C)CCCn1cc(C2=C(c3c[nH]c4ccccc34)C(=O)NC2=O)c2ccccc21`, for which the fractional viability is 0.874 under setting [1], 0.991 under setting [2], 0.354 under setting [3] and 0.397 under setting [4].

As for `COc1nc(N)nc2c1ncn2[C@@H]1O[C@H](CO)[C@@H](O)[C@@H]1O` [Nelarabine], the fractional viability runs as follows: under setting [1], 1.18; under setting [2], 1.2; under setting [3], 1.06; under setting [4], 1.16.

For `O=C(/C=C/C=C/c1ccc2c(c1)OCO2)N1CCCCC1` [Piperine], the fractional viability is, setting by setting: under setting [1], 0.998; under setting [2], 1.08; under setting [3], 0.915; under setting [4], 1.03.

Consider `O=C(O)C(S)=Cc1c[nH]c2ccc(F)cc12`, for which the fractional viability by setting is: under setting [1], 0.732; under setting [2], 0.984; under setting [3], 0.838; under setting [4], 0.827.

In the case of `O=c1c2ccccc2nc2n1CCc1c-2[nH]c2ccccc12` [Rutaecarpine], the fractional viability runs as follows: under setting [1], 1.31; under setting [2], 1.3; under setting [3], 1.11; under setting [4], 1.01.

`CCC(=O)OCC(=O)[C@@]1(OC(=O)CC)[C@@H](C)C[C@H]2[C@@H]3CCC4=CC(=O)C=C[C@]4(C)[C@@]3(Cl)[C@@H](O)C[C@@]21C` [Beclomethasone dipropionate] returned a fractional viability under setting [1] of 1.11, a fractional viability under setting [2] of 1.14, a fractional viability under setting [3] of 0.784 and a fractional viability under setting [4] of 1.05.

For the compound `Cc1cc(C)nc(SCC(=O)Nc2ncc(Cc3cccc4ccccc34)s2)n1`, the fractional viability is 0.849 under setting [1], 0.957 under setting [2], 0.785 under setting [3] and 0.802 under setting [4].

`O=C1NC(=O)[C@@H](c2cn3c4c(cccc24)CCC3)[C@@H]1c1c[nH]c2ccccc12` [Tivantinib (ARQ 197)] registered a fractional viability under setting [1] of 0.226, a fractional viability under setting [2] of 0.303, a fractional viability under setting [3] of 0.147 and a fractional viability under setting [4] of 0.125.

As for `CCc1cnn2c(NCc3ccc[n+]([O-])c3)cc(N3CCCC[C@H]3CCO)nc12`, the fractional viability reads like this: under setting [1], 0.305; under setting [2], 0.295; under setting [3], 0.298; under setting [4], 0.31.

On to `C[C@@]1(c2cc(-c3cncnc3)c(F)cc2F)CCSC(N)=N1`, for which the fractional viability was 1.01 under setting [1], 1.06 under setting [2], 0.851 under setting [3] and 1.01 under setting [4].

In turn, `C[C@H]1Oc2cc(cnc2N)-c2c(nn(C)c2C#N)CN(C)C(=O)c2ccc(F)cc21` yielded a fractional viability under setting [1] of 0.636, a fractional viability under setting [2] of 0.813, a fractional viability under setting [3] of 0.659 and a fractional viability under setting [4] of 0.556.

Regarding `CCOC(=O)Nc1ccc(NCc2ccc(F)cc2)nc1N` [Flupirtine maleate], the fractional viability by setting is: under setting [1], 0.981; under setting [2], 1.12; under setting [3], 0.8; under setting [4], 1.02.

In turn, `O=C(O)CCCC[C@@H]1SC[C@@H]2NC(=O)N[C@@H]21` [Biotin (Vitamin B7)] gave a fractional viability under setting [1] of 1.01, a fractional viability under setting [2] of 1.16, a fractional viability under setting [3] of 0.883 and a fractional viability under setting [4] of 1.14.

Compound `CCOc1cc(C(C)(C)C)ccc1C1=N[C@@](C)(c2ccc(Cl)cc2)[C@@](C)(c2ccc(Cl)cc2)N1C(=O)N1CCN(CCCS(C)(=O)=O)CC1` gave a fractional viability under setting [1] of 0.328, a fractional viability under setting [2] of 0.326, a fractional viability under setting [3] of 0.245 and a fractional viability under setting [4] of 0.277.

Turning to `O=C(/C=C/N1C[C@H]2C[C@@H]1CN2c1ccccn1)c1ccccc1O`, the fractional viability came to 0.753 under setting [1], 0.995 under setting [2], 0.725 under setting [3] and 1.03 under setting [4].

Turning to `CC(=O)SCC(Cc1ccccc1)C(=O)NCC(=O)OCc1ccccc1` (centres undefined) [Racecadotril], the fractional viability turned out to be 0.977 under setting [1], 1.16 under setting [2], 0.804 under setting [3] and 1.13 under setting [4].

Take `C[C@H](CCC(=O)O)[C@H]1CC[C@H]2[C@@H]3CC[C@@H]4C[C@H](O)CC[C@]4(C)[C@H]3CC[C@]12C` [Lithocholic acid]: the fractional viability came out at 1.08 under setting [1], 1.14 under setting [2], 0.879 under setting [3] and 1.06 under setting [4].
